# Results published in the BET-seq Pho4 binding data (Le et al. 2018).
# The list shows a part of the results. Values were computed here from the reads of four pooled replicates and scatter widely.
# Target: T1, Pho4 (S. cerevisiae) (UniProt P07270)
# T1 sequence: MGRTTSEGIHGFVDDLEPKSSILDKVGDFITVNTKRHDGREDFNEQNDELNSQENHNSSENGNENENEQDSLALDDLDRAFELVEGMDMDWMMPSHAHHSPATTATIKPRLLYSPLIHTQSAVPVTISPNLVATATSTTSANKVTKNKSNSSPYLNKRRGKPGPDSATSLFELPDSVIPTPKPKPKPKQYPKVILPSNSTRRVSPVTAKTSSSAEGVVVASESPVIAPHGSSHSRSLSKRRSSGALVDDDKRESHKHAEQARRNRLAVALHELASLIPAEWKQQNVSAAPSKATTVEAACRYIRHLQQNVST
# Assay: relative binding free energy (BET-seq); higher = weaker binding
# Conditions: reference: library average
row,Sequence,relative binding free energy
1,TCGAGCACGTGTGGGC,-0.04 kcal/mol
2,TGGGACACGTGATGGG,0.23 kcal/mol
3,ATAGGCACGTGGGTGG,-0.27 kcal/mol
4,TCTTTCACGTGGAGTA,0.43 kcal/mol
5,TGGGGCACGTGAAGCT,0.11 kcal/mol
6,TATTACACGTGTGTGT,0.09 kcal/mol
7,CTTTTCACGTGTATAT,0.21 kcal/mol
8,TAAGCCACGTGGTTTT,-0.17 kcal/mol
9,AGGTACACGTGTGTTG,0.08 kcal/mol
10,TTTGGCACGTGCTGGG,-0.06 kcal/mol
11,GATTTCACGTGCGGGT,0.34 kcal/mol
12,ACATGCACGTGTGGGG,-0.14 kcal/mol
13,AGGGGCACGTGACGTG,-0.01 kcal/mol
14,CTATACACGTGAGGTA,0.21 kcal/mol
15,GGGCGCACGTGTTGCG,-0.1 kcal/mol
16,GTGGGCACGTGGGTGT,-0.12 kcal/mol
17,GTTGCCACGTGAGTTT,0.21 kcal/mol
18,AGTGACACGTGGTGGC,-0.06 kcal/mol
19,TAGTGCACGTGGTCTA,-0.17 kcal/mol
20,AAGAACACGTGTTGGA,0.14 kcal/mol
21,TGCTGCACGTGTGCTT,-0.04 kcal/mol
22,GTTGTCACGTGTACTT,0.26 kcal/mol
23,TTATGCACGTGTCTGA,0.04 kcal/mol
24,TAAGTCACGTGGTTTT,0.14 kcal/mol
25,CTTGGCACGTGGGCTA,-0.19 kcal/mol

row,Sequence,relative binding free energy
1,TCGGACACGTGTGATT,0.3 kcal/mol
2,AGAAACACGTGGTGTA,-0.02 kcal/mol
3,AATGACACGTGGGGCG,0.01 kcal/mol
4,GGCAGCACGTGGGTCG,-0.23 kcal/mol
5,CACGTCACGTGGGGTG,-0.16 kcal/mol
6,TTTTACACGTGTTTGT,0.1 kcal/mol
7,TGTAGCACGTGTGTTT,0.04 kcal/mol
8,AGAGTCACGTGAGTAT,0.12 kcal/mol
9,TGGTACACGTGGCCTT,-0.05 kcal/mol
10,AAAGTCACGTGTAGGC,0.13 kcal/mol
11,AGAATCACGTGGGAGT,0.08 kcal/mol
12,TCTATCACGTGGGTCG,0.04 kcal/mol
13,CGTTTCACGTGGTCAG,0.11 kcal/mol
14,GTGGGCACGTGGTGGG,-0.05 kcal/mol
15,TAAGTCACGTGTCGGT,0.11 kcal/mol
16,GGGAACACGTGGAATG,0.09 kcal/mol
17,CATGTCACGTGTATAT,0.07 kcal/mol
18,GTTTGCACGTGACTGA,0.21 kcal/mol
19,TGAAGCACGTGTTAAG,-0.01 kcal/mol
20,TTCTGCACGTGTAATT,0.11 kcal/mol
21,CTGGTCACGTGGGGCA,-0.03 kcal/mol
22,CCGGCCACGTGGGGGT,-0.33 kcal/mol
23,GATGGCACGTGGAGAG,-0.07 kcal/mol
24,GGTACCACGTGGGTAT,-0.22 kcal/mol
25,GTACACACGTGTATGT,0.14 kcal/mol

row,Sequence,relative binding free energy
1,TAGTTCACGTGAGATA,0.43 kcal/mol
2,TGCGGCACGTGGCGCG,-0.17 kcal/mol
3,GGTTACACGTGAGTTG,0.24 kcal/mol
4,TAGCGCACGTGGGGAA,-0.23 kcal/mol
5,ATTTTCACGTGAAATA,0.35 kcal/mol
6,TTTGTCACGTGCGGGG,-0.03 kcal/mol
7,GTGTGCACGTGGGGCA,-0.06 kcal/mol
8,CGCGGCACGTGTTGTG,-0.27 kcal/mol
9,TAAGTCACGTGTGGTC,0.01 kcal/mol
10,CGAGTCACGTGGGCGT,-0.03 kcal/mol
11,CAGGTCACGTGACGGT,0.2 kcal/mol
12,AGTCACACGTGACGGG,0.31 kcal/mol
13,TGGTACACGTGGTCAG,-0.01 kcal/mol
14,AAGAGCACGTGACGGT,0.03 kcal/mol
15,AGGGTCACGTGTGAAG,0.16 kcal/mol
16,TTACGCACGTGAAGGA,0.28 kcal/mol
17,GGTAGCACGTGGCGGG,-0.11 kcal/mol
18,CTGCGCACGTGGTAGT,-0.24 kcal/mol
19,TAGTTCACGTGAAATA,0.52 kcal/mol
20,TGGTGCACGTGGTCGC,-0.09 kcal/mol
21,TTGGACACGTGTCAGT,0.06 kcal/mol
22,TGGATCACGTGAAGGC,0.39 kcal/mol
23,TGAGACACGTGGCTTT,0.02 kcal/mol
24,GTGTTCACGTGGCGTA,0.21 kcal/mol
25,GTCGTCACGTGAGGAT,0.24 kcal/mol

row,Sequence,relative binding free energy
1,GGGTCCACGTGTGGTT,0.05 kcal/mol
2,ATGGACACGTGCGTTT,-0.02 kcal/mol
3,GGAGACACGTGTTGAA,0.18 kcal/mol
4,ATGTGCACGTGTCTGA,-0.19 kcal/mol
5,TTAATCACGTGAGGTT,0.33 kcal/mol
6,TTGTACACGTGTCATT,0.04 kcal/mol
7,TTCAGCACGTGTTGTT,-0.1 kcal/mol
8,ATGACCACGTGGGATG,-0.06 kcal/mol
9,GTGGTCACGTGATGAT,0.23 kcal/mol
10,ATATTCACGTGTCGGG,0.28 kcal/mol
11,CGGATCACGTGGGCAG,-0.02 kcal/mol
12,ATTTACACGTGTTTTT,0.14 kcal/mol
13,GGTGTCACGTGCGACT,0.16 kcal/mol
14,TCTTCCACGTGGTTGT,0.06 kcal/mol
15,AGATACACGTGTAGCT,0.23 kcal/mol
16,TGTAACACGTGCGTTG,-0.03 kcal/mol
17,TTATGCACGTGTCTGG,-0.02 kcal/mol
18,TGGTGCACGTGCTCAT,-0.03 kcal/mol
19,TGATTCACGTGAAATG,0.3 kcal/mol
20,GTAATCACGTGGCGTG,-0.01 kcal/mol
21,ATTCACACGTGGTGTG,-0.05 kcal/mol
22,GGGGCCACGTGTTGAA,0.04 kcal/mol
23,ACGTTCACGTGGTATA,0.17 kcal/mol
24,CGGCCCACGTGGGGGG,-0.32 kcal/mol
25,CGTCGCACGTGGGATG,-0.22 kcal/mol

row,Sequence,relative binding free energy
1,AAGTGCACGTGGGAGG,-0.1 kcal/mol
2,CATTGCACGTGTTGGG,0 kcal/mol
3,AGTGTCACGTGCATAT,0.02 kcal/mol
4,CTTGGCACGTGAACGG,0.12 kcal/mol
5,GTTAACACGTGGTTAA,0.07 kcal/mol
6,GGGATCACGTGGATGG,0.25 kcal/mol
7,AGGCACACGTGGTGCG,-0.12 kcal/mol
8,TGTCACACGTGGATGG,-0.01 kcal/mol
9,GACGTCACGTGAGTGG,0.38 kcal/mol
10,TGCCGCACGTGCGGTG,-0.03 kcal/mol
11,TGCTGCACGTGGACGG,-0.09 kcal/mol
12,AGGGGCACGTGGATGG,-0.08 kcal/mol
13,ATTGTCACGTGGGATG,0 kcal/mol
14,CGGATCACGTGTTGGC,0.24 kcal/mol
15,ATTTACACGTGAGATT,0.32 kcal/mol
16,TGAATCACGTGGCGGA,0.14 kcal/mol
17,GTTTACACGTGTCTTG,0.17 kcal/mol
18,TTGTGCACGTGTAGTA,-0.03 kcal/mol
19,ATAAACACGTGGGGGG,-0.2 kcal/mol
20,AATTGCACGTGGTGGG,-0.1 kcal/mol
21,AAAATCACGTGTGGGA,0.28 kcal/mol
22,TGTCTCACGTGATTGT,0.29 kcal/mol
23,CTAAACACGTGGGTGT,-0.14 kcal/mol
24,GAGATCACGTGGTAAG,0.23 kcal/mol
25,CGTATCACGTGAGGCT,0.33 kcal/mol

row,Sequence,relative binding free energy
1,AGGCACACGTGTAGTT,0.11 kcal/mol
2,TGGTGCACGTGAAACT,0.24 kcal/mol
3,TGATGCACGTGAGGGC,0.03 kcal/mol
4,ATATGCACGTGGTACG,-0.15 kcal/mol
5,GGAGTCACGTGGACTG,0.16 kcal/mol
6,TGTCTCACGTGTATTG,0.14 kcal/mol
7,CGGGACACGTGAACGG,0.45 kcal/mol
8,GTATTCACGTGGATTA,0.3 kcal/mol
9,GAGTACACGTGTTTGA,0.16 kcal/mol
10,AGGTTCACGTGGTCTG,0.32 kcal/mol
11,AATGACACGTGAGGTT,0.31 kcal/mol
12,GGTTCCACGTGTTGGA,0.16 kcal/mol
13,TGTGTCACGTGACAAG,0.29 kcal/mol
14,GAAATCACGTGGGCTG,0.12 kcal/mol
15,TGGTACACGTGTGGCG,0.14 kcal/mol
16,TAATGCACGTGAGAAT,0.32 kcal/mol
17,CATGTCACGTGCATGT,0.09 kcal/mol
18,AAGGGCACGTGTCGTA,-0.17 kcal/mol
19,AAGAGCACGTGAAGGG,0.25 kcal/mol
20,TGCTTCACGTGGGGTA,0.01 kcal/mol
21,TATGTCACGTGGTCGC,0.08 kcal/mol
